Measured values reported in PMC10121161, “Delivering a toxic metal to the active site of urease” (Science Advances, 2023).

Target: the molecule itself
Assay: cryo-EM structure; HpUreFD/urease complex coexpressed in E. coli, purified by Strep-Tactin XT and Superose-6 SEC in 50 mM Hepes, 200 mM NaCl, 0.5 mM TCEP (pH 7.5); 0.5 mg/ml on grids; tetrahedral symmetry; 2.3 Å

B1: H. pylori urease (HpUreAB), in the cryo-EM sample (complex)
chain 1: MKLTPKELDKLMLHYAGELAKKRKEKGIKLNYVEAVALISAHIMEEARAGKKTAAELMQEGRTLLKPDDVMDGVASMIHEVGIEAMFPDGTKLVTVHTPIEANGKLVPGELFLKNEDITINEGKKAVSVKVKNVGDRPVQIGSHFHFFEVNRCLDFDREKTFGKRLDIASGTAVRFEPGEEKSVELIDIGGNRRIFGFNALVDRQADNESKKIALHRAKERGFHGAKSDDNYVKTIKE
chain 2: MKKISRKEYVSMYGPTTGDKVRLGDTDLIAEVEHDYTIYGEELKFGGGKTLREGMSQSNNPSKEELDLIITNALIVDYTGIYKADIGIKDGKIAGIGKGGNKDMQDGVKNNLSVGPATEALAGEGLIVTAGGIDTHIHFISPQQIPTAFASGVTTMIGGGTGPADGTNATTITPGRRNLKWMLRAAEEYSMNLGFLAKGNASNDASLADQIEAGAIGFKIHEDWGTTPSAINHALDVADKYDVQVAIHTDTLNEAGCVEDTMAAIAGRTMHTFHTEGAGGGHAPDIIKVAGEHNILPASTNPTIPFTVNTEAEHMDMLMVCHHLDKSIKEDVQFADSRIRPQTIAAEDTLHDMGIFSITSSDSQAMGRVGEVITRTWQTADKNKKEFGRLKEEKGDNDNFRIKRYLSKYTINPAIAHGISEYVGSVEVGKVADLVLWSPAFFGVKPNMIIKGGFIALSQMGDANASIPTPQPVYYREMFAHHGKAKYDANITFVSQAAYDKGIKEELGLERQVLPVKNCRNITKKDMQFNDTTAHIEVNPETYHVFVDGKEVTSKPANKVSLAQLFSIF
notes: Helicobacter pylori urease subunit HpUreA (γ and β domains); Helicobacter pylori urease subunit HpUreB (α domain); dodecamer of HpUreAB catalytic units (four trimers); copies: 12 + 12
- stoichiometry N: 12
